Laboratory results reported in the supplement of paper PMC11417369.
± gives the standard deviation of the averaged measurements. The list shows a part of the results.

test system: PfAP2-EXP AP2 domain (GST-tagged); test: gcPBM binding intensity (ln(normalized median fluorescence intensity)); higher = stronger DNA binding
How it was run: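 An Agilent 4 × 180k array carrying primer-extended double-stranded 36-bp intergenic genomic probes and negative controls received GST-tagged P. falciparum DNA-binding domains expressed in E. coli, about 25 μg on average, for 1 h. The binding buffer contained 1× PBS, 1% milk, 0.2 mg/ml BSA, 0.5% salmon testes DNA and 0.03% Triton X-100. Binding intensity is the top Masliner-normalised natural-log median intensity across replicate spots of either probe orientation, read after Alexa488 anti-GST antibody staining and a 488 nm scan.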

Row | Sequence | gcPBM binding intensity (ln)
1 | ATATTAACTTTTATTACACACTCTCAACTTTTATTT [CACACA_site6176] | 8.63 ± 0.21
2 | AAGTTATACACATCAACACACACATACAACGTGGTG [CACACA_site8312] | 8.52 ± 0.45
3 | TAAACACATTATATATGTACATAATAAAAAAAAAAA [XGTACX_site7907] | 8.6 ± 0.32
4 | TTTTTTTTTTTTTTTTTTTTTTTCTACCTATTTATT [CACACA_negctrl_site94] | 7.94 ± 0.47
5 | TTGTATAAAATATGTAGTACAATAATATAACATTTT [XGTACX_site8607] | 8.55 ± 0.2
6 | TATGTATATTGAGATTGTACTTGTAATATTAAACAT [XGTACX_site3878] | 8.42 ± 0.41
7 | AATAATAAAAATATTGTGCACTTGTATATTTATTAT [GTGCAC_site9963] | 8.82 ± 0.16
8 | AAGGAATAAAATTTAGAAGACAATTTTATTTCAGTA [XGTACX_negctrl_site331] | 8.25 ± 0.59
9 | ATATCAAATAATTTAGTGCACTTTTTTTTTTCTTTT [GTGCAC_site9629] | 9.16 ± 0.3
10 | GGTATTTTCACATATAGTACACAAAAATAAAATAAA [XGTACX_site2139] | 8.75 ± 0.16
11 | CTAATCATAAAATATACACACACGGATACATTAAAT [CACACA_site2685] | 8.81 ± 0.56
12 | ATTTCTCTATCGTAATGTACAAAAAAAAGGGAAAAG [XGTACX_site1335] | 8.77 ± 0.52
13 | ATTGAAGGGAAATATATAATCATATTCAAAATAAAA [CACACA_negctrl_site728] | 8.43 ± 0.39
14 | TTTATACTTTCAAAATGTACATATATATATATATAT [XGTACX_site6241] | 10.2 ± 0.24
15 | TAATATATAATTTTATGTACATAATTATAAACCCAT [XGTACX_site919] | 8.6 ± 0.28
16 | AAAAAATACCAAAGGGGTACTTACACATAATACTTA [XGTACX_site2111] | 8.29 ± 0.36
17 | CATCAAAATGAAGCATGTACATAATATAAATAAATA [XGTACX_site4647] | 8.88 ± 0.45
18 | CTTTTTACTTAATACACACACACACCCAAAAAAAAA [CACACA_site948] | 8.74 ± 0.43
19 | CATATATATATATGAACACACAAAAAGAATATTTCC [CACACA_site1493] | 8.74 ± 0.33
20 | GTAGAAAGAAAAATTAGTACTTAAATATTATAAAAA [XGTACX_site8458] | 8.39 ± 0.42
21 | AATTATATTTAGTATATGCACACTTTATGTTTGTTA [CACACA_site2025] | 8.66 ± 0.28
22 | TTCTATGCATTTATAGTGCATGTAAAATATAAGATA [GTGCAC_site9466] | 8.825 ± 0.035

Row | Sequence | gcPBM binding intensity (ln)
23 | TCTATACCTATTCTTACACACATATGTATTTATATA [CACACA_site4475] | 8.99 ± 0.39
24 | TTTAAAAAAAAAAAAAATTTTTTTTTTTTTTTTTTA [CACACA_negctrl_site1415] | 7.83 ± 0.44
25 | AAAAAAAAAAAACATACACACACACTAATATTTATA [CACACA_site8038] | 8.39 ± 0.57
26 | GACTTTTTCATTTTTAGTACACATATATATTTCCCT [XGTACX_site3511] | 9.38 ± 0.32
27 | TTAAAAAATCACAACACACACACACCCAAAAAAAAA [CACACA_site1445] | 8.64 ± 0.5
28 | ATATATTTTTAATATGCACACAAGAATACATTCACA [CACACA_site914] | 8.67 ± 0.18
29 | TTTTAAAAAATATAATAATATAAATATTTTATACGT [TGCATGCA_negctrl_site252] | 8.11 ± 0.4
30 | AACATATAAAAATATGCACACACAGGAATACAAACA [CACACA_site8127] | 9.07 ± 0.44
31 | TTCTGTATACGGTGTGCACACAATTAAAAAAAAAAA [CACACA_site1416] | 8.79 ± 0.042
32 | TTAAATAACCTCAAGGATAAGAAAAAATTAAAAATT [CACACA_negctrl_site1336] | 8.28 ± 0.42
33 | CTATTTAAAATTTGAACACACATTATTTATTTTAAA [CACACA_site3114] | 8.3 ± 0.45
34 | GAAATAATAAAATCGACACACAAAAAAAAAAAAAAA [CACACA_site3476] | 8.2 ± 0.62
35 | CTTTATATATATTGCGTGCACATTTTTTTTTTTTTT | 9.01 ± 0.35
36 | TCAATATATATAAGAAGTACATGTGAATGAAAAAAA [XGTACX_site1674] | 9.14 ± 0.67
37 | AATAAATACAAAAATGTACACACATATATATATTTT [CACACA_site9167] | 8.39 ± 0.37
38 | TTGTAACAAAAGTACACACACATTTCTATAAATTTT [CACACA_site2772] | 8.51 ± 0.19
39 | CATTTTATTTTCTTTGTGCACAAAAATATTTTTTCT | 9.35 ± 0.13
40 | GGATTTTACCATAGCACACATATATGAATATTTTTC [CACACA_site1814] | 8.68 ± 0.26
41 | TTTATATACTATCAACGTACAAAAGTAATAAAAATA [XGTACX_site4343] | 8.71 ± 0.48
42 | TGTTCTAATTTTAATTGTACATATATACATATATAT [XGTACX_site7290] | 8.46 ± 0.35
43 | AAAGTTATGATATATACACACATATAAATATTAAAT [CACACA_site6361] | 8.51 ± 0.38
44 | GTAAATATATATATATATATATATATATATATATAT [GTGCAC_negctrl_site239] | 10.1 ± 0.34
